Measurements as given in patent publication US20180127502A1 (Memorial Sloan Kettering, published 2018).

Molecular target: human PD-1 monomer (human, UniProt Q15116 in part, limits assumed)
Test: ELISA on PD-1 monomer (FIG. 1)
From the text: ET901 ScFv-Fc (mouse IgG1 Fc) served as the negative control.

Chain of UniProt Q15116 (Q15116 25-167 limits assumed): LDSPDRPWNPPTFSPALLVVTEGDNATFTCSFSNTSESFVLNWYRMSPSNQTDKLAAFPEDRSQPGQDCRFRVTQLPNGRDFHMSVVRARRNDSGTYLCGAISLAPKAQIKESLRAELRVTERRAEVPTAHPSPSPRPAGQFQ

- binding result: binds
B1: anti-PD-1 scFv-Fc clone 27 (scFv linked to murine Fc) (Fc fusion)
chain: QSVLTQPPSVSVAPGKTARITCGGNNIGSKSVHWYQQRPGQAPVLVIYYDSDRPSGIPERFSGSNSGNTATLTISRVEAGDEADYYCQVWDSSSDYVFGIGTKVTVLGGGGGSGGGGSGGGGS[sequence of about 100 residues omitted]NYISMFDSWGQGTLVTVSS
notes: also called PD-1-27; not shown: murine Fc (mouse IgG1a) domain
